Laboratory results taken from PMC12040169 (PLOS Biology, 2025).
This is one part of the list.

test system: T1, C. trachomatis L2/434/Bu expressing GFP (CTL2-GFP); set-up: species or system HeLa; C. trachomatis total inclusion area by high-content imaging, normalised to DMSO; settings: total inclusion area; 28.5 h, 10 µM; inhibitor
T1 construct: L2/434/Bu GFP intracellular growth in HeLa cells
Procedure, shortened: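 Post-fluorescence-read fixation, DNA staining with Hoechst and high-content imaging; GFP inclusion area and number per well, and nuclei counts, used as proxies for bacterial growth and host viability.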

Row | Compound | % of control remaining
1 | COc1ccc(S(=O)(=O)Nc2nc(C)c(C(=O)Nc3ccc(F)cc3)s2)cc1OC [CBK050538] | 89.0227
2 | CC(C)c1c(N)nc(SCc2ccccc2)nc1Cl [CBK016721] | 92.5944
3 | O=c1[nH]c2n[nH]c(=O)n2c2c(-c3ccccc3)c[nH]c12 [CBK288054] | 108.135
4 | CCCC(C(=O)O)N1C(=O)C(=Cc2ccc(-c3ccc(C(=O)OCC)cc3)o2)SC1=S (stereo not shown) [CBK296983] | 105.037
5 | CN(C)CCCOc1ccc2c(c1)Sc1ccccc1CC2=O [CBK058002] | 99.7547
6 | Cc1ccc(OCC(=O)Nc2ccccc2CO)cc1 [CBK263600] | 122.906
7 | COc1ccccc1NCC(=O)n1nc(C)cc1C [CBK263879] | 83.5591
8 | O=S(=O)(NC1CCCC1)c1cccc(-c2nnc(-c3ccccc3)o2)c1 [CBK265716] | 94.4741
9 | CCc1nn2c(=O)cc(CN3CCN(C(=O)c4cccs4)CC3)nc2s1 [CBK306474] | 113.602
10 | Cc1cccnc1C(NC(=O)C1CCN(C(=O)N2CCCC2)CC1)c1cccs1 (stereo not shown) [CBK060124] | 106.952
11 | N#Cc1ccc(CNC(=O)N2CCCC(CO)C2)cc1 (stereo not shown) [CBK156043] | 113.232
12 | CN(C(=O)C1CCN(C(=S)NCc2ccccc2)CC1)C(c1ccccc1)c1ccccn1 (stereo not shown) [CBK060476] | 106.844
13 | COCC(=O)N[C@H]1C[C@H]2C(=O)Nc3ccccc3C(=O)N2C1 [CBK289353] | 75.9366
14 | S=C(Nc1ccccc1Cl)Nc1ccccc1-n1cccc1 [CBK018806] | 0
15 | CCc1ccc(NC(=O)N2CCCCC2CCn2ccnc2)cc1 (stereo not shown) [CBK307453] | 70.4464
16 | O=C(O)CCCn1cc(NC(=O)c2ccccc2Br)cn1 [CBK270100] | 81.4366
17 | CN1CCC(N2C[C@H](O)C[C@H]2c2nc(-c3ccc4c(c3)OCO4)no2)CC1 [CBK288931] | 100.823
18 | Cc1cccc(-n2ncc3c2ncn2c(COc4ccccc4C)nnc32)c1 [CBK265567] | 101.221
19 | Cc1ccccc1CNC(=O)c1ccc(C)c([N+](=O)[O-])c1 [CBK264010] | 107.03
20 | CC(=O)Nc1cccc(-c2ccc(C(=O)NCc3ccc(F)cc3)c(N3CCN(C(=O)c4ccco4)CC3)n2)c1 [CBK106012] | 93.8268
21 | O=C(NCCCN1CCc2ccccc2C1)C1CC1c1ccco1 (stereo not shown) [CBK305257] | 71.2334

Row | Compound | % of control remaining
22 | S=C(Nc1ccccc1)c1ccccc1 [CBK005397] | 56.2985
23 | CC(=O)Nc1cccc(-c2cnc(Nc3ccc(N4CCOCC4)cc3)c3nccn23)c1 [CBK091235] | 129.463
24 | O=C(Cn1cc(Br)ccc1=O)NC1CCN(Cc2ccccc2)CC1 [CBK305671] | 69.5832
25 | FC(F)(F)c1cc(-c2cc(Nc3ccc4[nH]ccc4c3)ncn2)cc(C(F)(F)F)c1 [CBK090855] | 89.521
26 | COC(=O)c1c(NC(=O)c2ccncc2)sc2c1CCC2 [CBK262637] | 109.142
27 | CCOC(=O)c1c(NC(=O)c2nn3c(C(F)(F)F)cc(-c4cccs4)nc3c2Cl)sc2c1CCCC2 [CBK262539] | 105.54
28 | COc1cc(CNC(C)(C)CO)c(Cl)cc1OC(C)C [CBK269542] | 92.8095
29 | COc1cccc(C(=O)NNC(=O)c2ccc(F)cc2)c1 [CBK261705] | 96.3104
30 | O=C(NCc1ccccn1)c1ccccc1Nc1cccc(C(F)(F)F)c1 [CBK107252] | 85.2616
31 | CC1CCc2nc(NS(=O)(=O)c3ccccc3)sc2C1 (stereo not shown) [CBK026915] | 93.3679
32 | CC(=O)OC(COc1ccc(F)cc1)Cn1cnc2ccccc21 (stereo not shown) [CBK266162] | 103.348
33 | O=C(CC1SCCNC1=O)NCc1ccccc1 (stereo not shown) [CBK270202] | 54.9873
34 | COc1cc(/C=C(\C#N)c2nc3ccccc3n2C)cc([N+](=O)[O-])c1O [CBK263893] | 115.818
35 | COc1ccc(CCN2C(=O)CC(C(=O)O)S/C2=N\c2ccc(Cl)cc2)cc1OC (stereo not shown) [CBK263286] | 109.234
36 | CCc1nn2c(=O)cc(CN3C(=O)NC(C)(c4ccco4)C3=O)nc2s1 (stereo not shown) [CBK305880] | 59.5835
37 | CS(=O)(=O)N(CC(=O)N1CCN(C(c2ccccc2)c2ccccc2)CC1)c1cccc(F)c1 [CBK266330] | 111.077
38 | O=C(Cn1c(=O)n(Cc2ccco2)c2ncccc21)N1CCCCC1 [CBK283862] | 75.6666
39 | COc1ccc(NS(=O)(=O)c2cccc(Cl)c2C)c(C(=O)NCc2ccccc2)c1 [CBK113953] | 108.505
40 | O=S(=O)(Cc1ccc(Cl)cc1)Nc1cccc2[nH]ccc12 [CBK153531] | 77.5074
41 | O=C1NC(N2CCCC2)=NOc2nnc(Cl)cc21 [CBK024856] | 75.8804
42 | CC(C)NCC(O)COC1CCC(C(C)(C)C)CC1 (stereo not shown) [CBK029007C] | 54.6025

Row | Compound | % of control remaining
43 | O=C(NC(C(=O)c1ccccc1)N1CCCCC1)c1ccccc1 (stereo not shown) [CBK261035] | 70.211
44 | CC(C)(CNC(=O)Cn1cnc2ccccc21)N1CCCCC1 [CBK281879] | 109.288
45 | CC(NC(=O)N(Cc1cccc2ccccc12)C1CCC(N)CC1)c1cccc2ccccc12 (stereo not shown) [CBK000482C] | 27.7465
46 | CS(=O)(=O)N(CC(=O)O)c1cccc2ccccc12 [CBK262420] | 105.748
47 | Cc1noc(C)c1CC(=O)NCc1ccc(CN2CCCCC2)cc1 [CBK281422] | 105.956
48 | O=C1c2ccc(Oc3cccc(Oc4ccc5c(c4)C(=O)N(CCO)C5=O)c3)cc2C(=O)N1CCO [CBK261398] | 103.507
49 | NC(CC(=O)O)c1ccc(OCc2ccccc2)cc1 (stereo not shown) [CBK286999] | 108.555
50 | COc1ccccc1-c1nc(C2CCCN(C(=O)NCCc3cccs3)C2)n2ccccc12 (stereo not shown) [CBK047163] | 98.8827
51 | COCCOCCCN1CCC2(CC1)NC(=O)Cc1ccc(C)cc12 [CBK040222] | 98.4763
52 | N#CCCNCC1COc2ccccc2O1 (stereo not shown) [CBK026615] | 91.6436
53 | O=C1NC(=O)C2(CCN(Cc3ccccc3)CC2)N1 [CBK005078] | 62.3858
54 | OCCNc1nc(Nc2ccc(Cl)cc2)nc(N2CCCCC2)n1 [CBK266638] | 113.103
55 | OCCn1nc(C2CCCC2)nc1CCc1c[nH]c2ccccc12 [CBK307509] | 75.3276
56 | O=C(Nc1cccc(F)c1)C(c1ccccc1)N1CCOCC1 (stereo not shown) [CBK269191] | 99.38
57 | COC1C(O)C(CO)OC1n1cc(F)c(SC)nc1=O (stereo not shown) [CBK201267] | 111.465
58 | CNC(=S)NCCc1c[nH]c2ccccc12 [CBK264853] | 113.248
59 | COc1ccc(C)cc1C1(CNC(=O)C2CCC(N)C2)CCOCC1 (stereo not shown) [CBK304312C] | 125.801
60 | CC(C)(C)NC(=O)COc1ccc(CNc2ccc(C(=O)O)c(Cl)c2)cc1 [CBK287230] | 112.152
61 | Cc1ccc2oc(CN3CCn4cnnc4C3)c(C)c2c1 [CBK283075] | 90.6357
62 | CCn1c2ccccc2c2cc(CN(CCN(C)C)Cc3ccccc3)ccc21 [CBK261924] | 85.6773
63 | Cc1ccc2c(c1)nc(CNC(=O)NCCc1nc(C)no1)n2C [CBK305552] | 42.1303

Row | Compound | % of control remaining
64 | CCOc1cc(/C=C/c2nc(O)c([N+](=O)[O-])c(=O)[nH]2)ccc1OCC(N)=O [CBK267337] | 116.646
65 | Cc1ccc2c(c1)N(CC(N)=O)C(=O)CO2 [CBK270208] | 97.7272
66 | O=C(O)CC1C(=O)NCCN1Cc1c(F)cccc1Cl (stereo not shown) [CBK287157] | 98.6558
67 | Cc1noc(C)c1C(=O)NC1Cc2ccccc2C1 [CBK200350] | 103.167
68 | COC(=O)c1ccc(-c2ccsc2)nc1 [CBK149229] | 94.8432
69 | Cc1nc2ccc(C(=O)OCc3ccc(S(=O)(=O)Cc4ccccc4)cc3)cc2nc1C [CBK269661] | 111.339
70 | COc1ccc(CN2CCC(Cc3ccccc3-c3ccc(C)cc3C)(C(=O)O)CC2)cc1 [CBK286421] | 103.202
71 | O=C(O)C1CCN(c2cncc(-c3ccc(F)cc3F)n2)CC1 [CBK065899] | 123.199
72 | COc1ccc(C2(NCc3cn(CC(N)=O)c4ccccc34)CC2)cc1 [CBK282833] | 84.0579
73 | O=C(Nc1ccc(OC(F)F)cc1)Nc1ncc(Br)c2cccnc12 [CBK107635] | 102.837
74 | Cc1ccn(CCNC(=O)CCN2Cc3ccccc3C2=O)n1 [CBK282655] | 91.3849
75 | N#CCCN1CCC2(CC1)NCCc1c2[nH]c2ccccc12 [CBK039788] | 109.78
76 | CCNC(=O)C1(Cc2ccccc2-c2ccccc2C)CCN(C(=O)c2ccccc2)CC1 [CBK285716] | 94.3768
77 | CCOCc1nc2c(c(NCc3cc(C)on3)n1)CCN(C(C)=O)CC2 [CBK307512] | 60.7346
78 | CC(C)(Oc1ccc(Cl)cc1)C(=O)O/N=C(\N)c1ccc(I)cc1 [CBK268760] | 106.511
79 | O=C(NC(=S)N1C[C@@H]2C[C@@H](C1)c1cccc(=O)n1C2)c1ccco1 [CBK288492] | 102.103
80 | CCOC(=O)C(CNC(=O)c1cnc(C)c(Br)c1Cl)Cc1ccccc1 (stereo not shown) [CBK305247] | 8.01
81 | O=CN1C2CCC1c1cnc3cc(-c4cccc(F)c4)nn3c1C2 (stereo not shown) [CBK282269] | 86.003
82 | Cc1ccc(C(=O)O)cc1NC(=O)C1CCCCC1C(=O)O (stereo not shown) [CBK263679] | 99.1974
